Assay results taken from the supplement of paper PMC7125110.
± gives the standard error. This sample is rich in variants without activity.

B1: glmS ribozyme (parent)
chain: AUAAAAGCGCCAGAACUACAGAAAUGUAGUUGACGAGGAGGAGGUUUAUCGAAUUUUCGGCGGAUGCCUCCAAA

What was measured:
Details in all cases: with glucosamine-6-phosphate
glucosamine-6-phosphate [1] = variants of: B1; assay: self-cleavage kobs at 640 uM GlcN6P; higher = faster cleavage; RNA array
Method in brief: (§1)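 Tiles bearing barcoded ribozyme variants, transcribed in situ by E. coli RNA polymerase on sequenced MiSeq chips, were imaged over ~14 h at 37 °C using a hybridised Cy3 probe. Glucosamine-6-phosphate was supplied at 40 μM to 10 mM in HEPES/KCl/Mg(OAc)2 buffer. kobs came from one- or two-exponential decay fits to normalised per-tile medians, and weighted Michaelis–Menten fits then provided kcat and KM.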

glucosamine-6-phosphate [2] = variants of: B1; assay: self-cleavage kobs at 160 uM GlcN6P; higher = faster cleavage; RNA array
Method in brief: as §1

glucosamine-6-phosphate [3] = variants of: B1; assay: self-cleavage kobs at 2500 uM GlcN6P; higher = faster cleavage; RNA array
Method in brief: as §1

glucosamine-6-phosphate [4] = variants of: B1; assay: self-cleavage kobs at 10000 uM GlcN6P; higher = faster cleavage; RNA array
Method in brief: as §1

Variant | self-cleavage kobs at 640 uM GlcN6P (glucosamine-6-phosphate [1]) | self-cleavage kobs at 160 uM GlcN6P (glucosamine-6-phosphate [2]) | self-cleavage kobs at 2500 uM GlcN6P (glucosamine-6-phosphate [3]) | self-cleavage kobs at 10000 uM GlcN6P (glucosamine-6-phosphate [4])
AUAAAAGCGCCAGAACUACAGAAAUGUAGUUGACGAGGAGGAGGUUUAUCGAAUUUUUCGUGGAUGCCUCAAAA [C58U G59C C61U C71A] | < 1e-05 s⁻¹ | – | – | –
AUAAAAGCGCCAGAACUACAGAAAUGUAGUUGACGAGGAGGAGGUUUAUAGAAUUUUCGGCGGAUGUUUCCAAA [C50A C67U C68U] | 6.87e-05 ± 2.8e-05 s⁻¹ | 6.13e-05 ± 3.1e-05 s⁻¹ | 0.000153 ± 6.2e-05 s⁻¹ | –
AUAAAAGCGCCAGAACUACAGAAAUGUAGUUGACGAGGAGGAGGUUUAUCGAAUUAUGAACGGAUGCCUCCAAA [U56A C58G G59A G60A] | < 1e-05 s⁻¹ | – | < 1e-05 s⁻¹ | –
AUAAAAGCGCCAGAACUACAGAAAUGUAGUUGACGAGGAGGAGGUUUAUCGAAUUUUCGGCGGACGGCUCCAAA [U65C C67G] | 5.5e-05 ± 1.4e-05 s⁻¹ | – | – | 6.72e-05 ± 8.1e-06 s⁻¹
AUAAAAGCGCCAGAACUACAGAAAUGUAGUUGACGAGGAGGAGGUUUAUCGAAUUUUCAGCGAAUACCUCCAAA [G59A G63A G66A] | < 1e-05 s⁻¹ | – | – | –
AUAAAAGCGCCAGAACUACAGAAAUGUAGUUGACGAGGAGGAGGUUUAUCGAAUUUCCGGCGCAUGCCUCCAAA [U57C G63C] | < 1e-05 s⁻¹ | < 1e-05 s⁻¹ | < 1e-05 s⁻¹ | < 1e-05 s⁻¹
AUAAAAGCGCCAGAACUACAGAAAUGUAGUUGACGAGGAGGAGGUUUAUUGGAUUUUCGGCGGAUGCCUACAAA [C50U A52G C70A] | 0.000125 ± 3.7e-05 s⁻¹ | 5.11e-05 ± 2.3e-05 s⁻¹ | 6.9e-05 ± 2.3e-05 s⁻¹ | –
AUAAAAGCGCCAGAACUACAGAAAUGUAGUUGACGAGGAGGAGGUUUAUCGAAUUUUCGGCGAAUGGCUCCAAA [G63A C67G] | < 1e-05 s⁻¹ | – | < 1e-05 s⁻¹ | –
AUAAAAGCGCCAGAACUACAGAAAUGUAGUUGACGAGGAGGAGGUUUUUCGAAGUUUCGGCGGAUGCCUUCAAA [A48U U54G C70U] | 0.000139 ± 2.9e-05 s⁻¹ | – | 0.000369 ± 9.6e-05 s⁻¹ | 0.000445 ± 0.00012 s⁻¹
AUAAAAGCGCCAGAACUACAGAAAUGUAGUUGACGAGGAGGAGGUUUAUCGAAUUUUGGGCGGGAUGCCCCAAA [C58G A64G U65A G66U C67G U69C] | 9.79e-05 ± 2.9e-05 s⁻¹ | – | – | –
AUAAAAGCGCCAGAACUACAGAAAUGUAGUUGACGAGGAGGAGGUUUAUCUUAUUUUCGGCGGAUGCCUCCAAA [G51U A52U] | < 1e-05 s⁻¹ | < 1e-05 s⁻¹ | < 1e-05 s⁻¹ | –
AUAAAAGCGCCAGAACUACAGAAAUGUAGUUGACGAGGAGGAGGUUUAUCGAAUUUUUGGCGUAUGCCUCCAAA [C58U G63U] | < 1e-05 s⁻¹ | – | < 1e-05 s⁻¹ | < 1e-05 s⁻¹
AUAAAAGCGCCAGAACUACAGAAAUGUAGUUGACGAGGAGGAGGUUUAUCGAAUUUUGGGCAGAUGCCUCCAAA [C58G G62A] | < 1e-05 s⁻¹ | – | < 1e-05 s⁻¹ | < 1e-05 s⁻¹
AUAAAAGCGCCAGAACUACAGAAAUGUAGUUGACGAGGAGGAGGUUUAUCGAAUUUUCGGCGGUGGCCUCUAAA [A64U U65G C71U] | < 1e-05 s⁻¹ | – | < 1e-05 s⁻¹ | –
AUAAAAGCGCCAGAACUACAGAAAUGUAGUUGACGAGGAGGAGGUUUAGCGAAUUUUCGGCGGACGCCUCCAAA [U49G U65C] | < 1e-05 s⁻¹ | – | – | –
AUAAAAGCGCCAGAACUACAGAAAUGUAGUUGACGAGGAGGAGGUUUAGCGAAUUUUCGGCCGAUGCCUUCAAA [U49G G62C C70U] | < 1e-05 s⁻¹ | < 1e-05 s⁻¹ | – | –
AUAAAAGCGCCAGAACUACAGAAAUGUAGUUGACGAGGAGGAGGUUUAUCGCAUUUGCGGCGGAUGCCGCCAAA [A52C U57G U69G] | 8.06e-05 ± 2.8e-05 s⁻¹ | – | – | –

Variant | self-cleavage kobs at 640 uM GlcN6P (glucosamine-6-phosphate [1]) | self-cleavage kobs at 160 uM GlcN6P (glucosamine-6-phosphate [2]) | self-cleavage kobs at 2500 uM GlcN6P (glucosamine-6-phosphate [3]) | self-cleavage kobs at 10000 uM GlcN6P (glucosamine-6-phosphate [4])
AUAAAAGCGCCAGAACUACAGAAAUGUAGUUGACGAGGAGGAGGUUUAUCGAAUUUUUGGAGGAUGCCUCCAAA [C58U C61A] | 0.000108 ± 3.4e-05 s⁻¹ | 6.42e-05 ± 1.7e-05 s⁻¹ | 7.93e-05 ± 1.5e-05 s⁻¹ | –
AUAAAAGCGCCAGAACUACAGAAAUGUAGUUGACGAGGAGGAGGUUUUACGAAUUUUCGGCGGAUGCAUCCAAA [A48U U49A C68A] | < 1e-05 s⁻¹ | – | – | –
AUAAAAGCGCCAGAACUACAGAAAUGUAGUUGACGAGGAGGAGGUUUACCGGAUUUUCGGCGGAUGCCUCCAAA [U49C A52G] | < 1e-05 s⁻¹ | – | < 1e-05 s⁻¹ | < 1e-05 s⁻¹
AUAAAAGCGCCAGAACUACAGAAAUGUAGUUGACGAGGAGGAGGUUUGUCGAAGUUUCGGCGGAUGCCUCCAAA [A48G U54G] | 6.14e-05 ± 1.1e-05 s⁻¹ | – | 0.000134 ± 2.5e-05 s⁻¹ | 0.000127 ± 1.2e-05 s⁻¹
AUAAAAGCGCCAGAACUACAGAAAUGUAGUUGACGAGGAGGAGGUUUAUCAAAUUUUCGGUGGAUGCCUCCAAA [G51A C61U] | < 1e-05 s⁻¹ | < 1e-05 s⁻¹ | – | < 1e-05 s⁻¹
AUAAAAGCGCCAGAACUACAGAAAUGUAGUUGACGAGGAGGAGGUUUACCGAAUUUUAGGCGGAUGCCUCCAAA [U49C C58A] | < 1e-05 s⁻¹ | – | – | < 1e-05 s⁻¹
AUAAAAGCGCCAGAACUACAGAAAUGUAGUUGACGAGGAGGAGGUUUAUCGAAUUUUCGGAGGAUGUCUCCAAA [C61A C67U] | 6.41e-05 ± 1.4e-05 s⁻¹ | 2.79e-05 ± 1.1e-05 s⁻¹ | 4.8e-05 ± 9.3e-06 s⁻¹ | –
AUAAAAGCGCCAGAACUACAGAAAUGUAGUUGACGAGGAGGAGGUUUAGCGAAUGUUCGGCGGAUGCCUCCAAA [U49G U55G] | 0.000247 ± 5e-05 s⁻¹ | 8.7e-05 ± 1.8e-05 s⁻¹ | 0.000582 ± 6.3e-05 s⁻¹ | 0.000687 ± 9.4e-05 s⁻¹
AUAAAAGCGCCAGAACUACAGAAAUGUAGUUGACGAGGAGGAGGUUUAUCGAAUUUUCGGCGGAUGCAGCCAAA [C68A U69G] | 9.62e-05 ± 3.5e-05 s⁻¹ | – | – | –
AUAAAAGCGCCAGAACUACAGAAAUGUAGUUGACGAGGAGGAGGUUUAUCGAAUGUUCGGCGGUUGACUCCAAA [U55G A64U C67A] | < 1e-05 s⁻¹ | – | – | –
AUAAAAGCGCCAGAACUACAGAAAUGUAGUUGACGAGGAGGAGGUUUAUCGAGAUUUCGGCGUAUGCCUCCAAA [A53G U54A G63U] | < 1e-05 s⁻¹ | – | < 1e-05 s⁻¹ | –
AUAAAAGCGCCAGAACUACAGAAAUGUAGUUGACGAGGAGGAGGUUUAUCGUAUUUUCGGCGGAUGACUCCAAA [A52U C67A] | 6.53e-05 ± 8.3e-06 s⁻¹ | – | 0.000124 ± 1.6e-05 s⁻¹ | 0.000183 ± 2.1e-05 s⁻¹
AUAAAAGCGCCAGAACUACAGAAAUGUAGUUGACGAGGAGGAGGUUUAUCGAUUUUUCGGCAGAUGCUUCCAAA [A53U G62A C68U] | < 1e-05 s⁻¹ | < 1e-05 s⁻¹ | – | –
AUAAAAGCGCCAGAACUACAGAAAUGUAGUUGACGAGGAGGAGGUUUAUCUAUAUUUCGGCGGAUGCCUCCAAA [G51U A53U U54A] | < 1e-05 s⁻¹ | – | – | < 1e-05 s⁻¹
AUAAAAGCGCCAGAACUACAGAAAUGUAGUUGACGAGGAGGAGGUUUUUCGAAUUUUCGGCGGAUGGCUUCAAA [A48U C67G C70U] | < 1e-05 s⁻¹ | – | – | –
AUAAAAGCGCCAGAACUACAGAAAUGUAGUUGACGAGGAGGAGGUUUAUCGAAUCUUCGGUGGAUGCGUCCAAA [U55C C61U C68G] | < 1e-05 s⁻¹ | < 1e-05 s⁻¹ | < 1e-05 s⁻¹ | –
